Results as given in the BET-seq Pho4 binding data (Le et al. 2018).
The list shows a part of the results. Values were computed here from the reads of four pooled replicates and scatter widely.

Biological target: T1, Pho4 (S. cerevisiae) (UniProt P07270)
T1 sequence: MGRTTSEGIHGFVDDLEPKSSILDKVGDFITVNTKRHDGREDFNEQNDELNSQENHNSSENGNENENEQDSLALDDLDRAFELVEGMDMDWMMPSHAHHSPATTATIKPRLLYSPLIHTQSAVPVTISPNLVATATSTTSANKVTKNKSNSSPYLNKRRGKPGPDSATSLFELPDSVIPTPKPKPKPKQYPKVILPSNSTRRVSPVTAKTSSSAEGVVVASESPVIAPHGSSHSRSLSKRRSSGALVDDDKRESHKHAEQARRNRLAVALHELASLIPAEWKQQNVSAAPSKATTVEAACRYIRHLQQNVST
Assay: relative binding free energy (BET-seq); higher = weaker binding
Conditions: reference: library average

Row | Sequence | relative binding free energy
1 | TAGTCCACGTGGAGGG | 0.01 kcal/mol
2 | CTGATCACGTGTTGGT | 0.09 kcal/mol
3 | GTTATCACGTGAAAGT | 0.37 kcal/mol
4 | ACATGCACGTGTGGAT | 0.09 kcal/mol
5 | GTCATCACGTGATTTT | 0.3 kcal/mol
6 | AGGTTCACGTGTGACT | 0.36 kcal/mol
7 | TGGTTCACGTGCGGGT | 0.28 kcal/mol
8 | AGTTGCACGTGATAGT | 0.09 kcal/mol
9 | CGGTGCACGTGGCGTA | -0.01 kcal/mol
10 | TGAGGCACGTGTGTGA | 0.04 kcal/mol
11 | TTGGCCACGTGTTGGC | -0.11 kcal/mol
12 | TGATGCACGTGCGGTA | -0.14 kcal/mol
13 | AGTAGCACGTGGTACG | -0.21 kcal/mol
14 | GTCGGCACGTGTGTTG | 0.01 kcal/mol
15 | TTTAGCACGTGTGTCA | -0.06 kcal/mol
16 | CTTGTCACGTGAGCGG | 0.16 kcal/mol
17 | AGCTTCACGTGATTTG | 0.24 kcal/mol
18 | GTGTTCACGTGTCGGA | 0.39 kcal/mol
19 | GTTGGCACGTGGGACT | -0.12 kcal/mol
20 | CTGGTCACGTGGTCGG | 0.12 kcal/mol
21 | ATGAACACGTGGGTGC | -0.12 kcal/mol
22 | CAGTGCACGTGGAGGT | -0.04 kcal/mol
23 | TTATTCACGTGGGATG | 0.36 kcal/mol
24 | CAAGGCACGTGAGTTG | 0.09 kcal/mol
25 | TATTGCACGTGGGTAA | -0.08 kcal/mol

Row | Sequence | relative binding free energy
26 | GCATGCACGTGGTAGT | -0.07 kcal/mol
27 | AGTCTCACGTGGTGTA | 0.17 kcal/mol
28 | TCATTCACGTGTACGG | 0.26 kcal/mol
29 | CGTTTCACGTGTTGTT | 0.22 kcal/mol
30 | TCAATCACGTGTTTTT | 0.15 kcal/mol
31 | AGGATCACGTGGTAGT | 0.12 kcal/mol
32 | AAATTCACGTGTAGTT | 0.26 kcal/mol
33 | TAGTACACGTGGGGAA | -0.2 kcal/mol
34 | GGGAACACGTGGGCTG | -0.15 kcal/mol
35 | TATAACACGTGGTATT | -0.06 kcal/mol
36 | TCGGACACGTGTTGAT | 0.06 kcal/mol
37 | ACGGTCACGTGCGGGG | 0.03 kcal/mol
38 | TGTGCCACGTGGGTCA | -0.29 kcal/mol
39 | AGGTTCACGTGACGGA | 0.29 kcal/mol
40 | AGGGACACGTGGGATT | -0.01 kcal/mol
41 | AAGCTCACGTGGAGAT | 0.36 kcal/mol
42 | CATGGCACGTGGGTCG | -0.23 kcal/mol
43 | AGTGTCACGTGATCTC | 0.3 kcal/mol
44 | TGTTACACGTGGTTCG | 0.06 kcal/mol
45 | TAGTGCACGTGGACAT | 0.09 kcal/mol
46 | TGTATCACGTGATGCT | 0.15 kcal/mol
47 | TGCGACACGTGTTGTT | 0.01 kcal/mol
48 | CTTGGCACGTGTTAGC | 0.02 kcal/mol
49 | AGTGTCACGTGATTGC | 0.07 kcal/mol
50 | TAGATCACGTGGTATC | 0.09 kcal/mol

Row | Sequence | relative binding free energy
51 | TGTTACACGTGTTTGC | 0.13 kcal/mol
52 | AGTAACACGTGGCGTG | -0.12 kcal/mol
53 | AGAGTCACGTGATGTG | 0.21 kcal/mol
54 | TGGGGCACGTGCATCG | -0.29 kcal/mol
55 | ATGTGCACGTGGGCGA | -0.15 kcal/mol
56 | CTGTACACGTGTGTTA | 0.08 kcal/mol
57 | GGTAGCACGTGAGGTA | 0.19 kcal/mol
58 | GGCATCACGTGTGGCG | 0.13 kcal/mol
59 | TGTGACACGTGCGTTT | -0.09 kcal/mol
60 | CAAGTCACGTGGTGAT | 0.19 kcal/mol
61 | TAAAGCACGTGTTAAG | -0.01 kcal/mol
62 | TTTGGCACGTGCTTCG | -0.26 kcal/mol
63 | ATCGCCACGTGTGGGT | 0.01 kcal/mol
64 | GTCGTCACGTGTGAAG | 0.08 kcal/mol
65 | AGGATCACGTGGGGTT | 0.02 kcal/mol
66 | TGGTACACGTGGTCGT | -0.03 kcal/mol
67 | TGTGTCACGTGTCTAG | 0.08 kcal/mol
68 | TCCTGCACGTGTGTTT | 0.05 kcal/mol
69 | GGCGCCACGTGTGGTA | -0.07 kcal/mol
70 | TTGGGCACGTGATATA | 0 kcal/mol
71 | AGGGTCACGTGGCTGA | -0.02 kcal/mol
72 | TTTTACACGTGAGTAG | 0.13 kcal/mol
73 | TTGTCCACGTGTGTCG | -0.03 kcal/mol
74 | TGAAGCACGTGGGGCA | -0.21 kcal/mol
75 | TTGATCACGTGAGGAG | 0.25 kcal/mol

Row | Sequence | relative binding free energy
76 | TAGGGCACGTGGTATA | -0.21 kcal/mol
77 | GTATTCACGTGTCTTT | 0.12 kcal/mol
78 | CAATTCACGTGGATAT | 0.47 kcal/mol
79 | GGTCGCACGTGGGACG | -0.08 kcal/mol
80 | GAGGCCACGTGGGGTA | -0.05 kcal/mol
81 | TACTCCACGTGTTGTG | 0.12 kcal/mol
82 | TTTCTCACGTGGATTT | 0.21 kcal/mol
83 | GGGTACACGTGGCTCG | 0.04 kcal/mol
84 | GGGATCACGTGGGTCA | -0.09 kcal/mol
85 | TTCGGCACGTGGGCAT | -0.4 kcal/mol
86 | CGGGACACGTGGGGGG | -0.1 kcal/mol
87 | CGGAGCACGTGAAGGG | 0 kcal/mol
88 | GTCTGCACGTGATCGG | 0.14 kcal/mol
89 | TAGTTCACGTGGTACG | 0.16 kcal/mol
90 | ATCGGCACGTGACGGG | -0.07 kcal/mol
91 | TGGTTCACGTGAACTG | 0.43 kcal/mol
92 | GATTACACGTGGGGCA | 0.17 kcal/mol
93 | AGTCGCACGTGGGTTG | -0.11 kcal/mol
94 | GTCTACACGTGTATGT | 0.25 kcal/mol
95 | ATGGTCACGTGTGTGA | 0.11 kcal/mol
96 | GAGGGCACGTGTCATT | 0.09 kcal/mol
97 | GTCTACACGTGCGGTG | 0.05 kcal/mol
98 | GTGGTCACGTGTTAAT | 0.24 kcal/mol
99 | TGTCCCACGTGAGGTT | 0.29 kcal/mol
100 | GAGTCCACGTGTGAGG | 0.2 kcal/mol

Row | Sequence | relative binding free energy
101 | AAAATCACGTGGGATT | 0.12 kcal/mol
102 | TTTGCCACGTGCGTGG | -0.09 kcal/mol
103 | AATTGCACGTGTGGAG | -0.03 kcal/mol
104 | CCTGTCACGTGGATGT | 0.06 kcal/mol
105 | GGAGTCACGTGCAGGT | 0.13 kcal/mol
106 | GGCAGCACGTGTCGGT | 0.23 kcal/mol
107 | GGAGACACGTGGGGGT | -0.04 kcal/mol
108 | GCGGGCACGTGGCGCG | -0.16 kcal/mol
109 | GTTGGCACGTGTCATA | -0.09 kcal/mol
110 | CGAGGCACGTGGAGGG | -0.13 kcal/mol
111 | ATCAGCACGTGGGGTT | -0.25 kcal/mol
112 | TTTTTCACGTGCCGTT | 0.24 kcal/mol
113 | CGGAGCACGTGAGGAT | 0.21 kcal/mol
114 | GATTACACGTGTTGGT | 0.22 kcal/mol
115 | ATAGGCACGTGGGCGC | -0.22 kcal/mol
116 | AGGGCCACGTGATTGG | 0.04 kcal/mol
117 | AGGTACACGTGGGTAT | 0 kcal/mol
118 | GCCTTCACGTGGGGTT | 0.26 kcal/mol
119 | TCTGTCACGTGATTTC | 0.46 kcal/mol
120 | GTTCGCACGTGATTTG | 0.16 kcal/mol
121 | GGTGACACGTGGTTTA | 0.05 kcal/mol
122 | AATCTCACGTGTGTTG | 0.2 kcal/mol
123 | AGAATCACGTGTGTAG | 0.23 kcal/mol
124 | AATTGCACGTGGCAGG | -0.04 kcal/mol
125 | GGTCTCACGTGGGTTC | 0.26 kcal/mol

Row | Sequence | relative binding free energy
126 | AAGAGCACGTGTGGAG | -0.15 kcal/mol
127 | GTCAGCACGTGTGTTT | -0.13 kcal/mol
128 | AGTTGCACGTGTTTGG | 0.02 kcal/mol
129 | TGTCACACGTGCGGTG | -0.08 kcal/mol
130 | GATATCACGTGTTGGA | 0.15 kcal/mol
131 | TTTTGCACGTGTATGG | 0.09 kcal/mol
132 | CTTTTCACGTGGAATG | 0.29 kcal/mol
133 | ATGTTCACGTGAGTGC | 0.19 kcal/mol
134 | AGAAACACGTGTTGGG | 0.01 kcal/mol
135 | TTGCGCACGTGGTAAT | -0.11 kcal/mol
136 | CGGAGCACGTGCTGGG | -0.25 kcal/mol
137 | ATTAACACGTGTCGTG | -0.14 kcal/mol
138 | ACGTGCACGTGGTTTA | -0.23 kcal/mol
139 | GTTGTCACGTGGCGAG | 0.14 kcal/mol
140 | GTCATCACGTGTGTAG | 0.08 kcal/mol
141 | CATTGCACGTGTGAGT | 0.15 kcal/mol
142 | TAGGGCACGTGTTGTC | -0.1 kcal/mol
143 | GTGTTCACGTGCAAAG | 0.45 kcal/mol
144 | TTGTTCACGTGGTCGT | 0.13 kcal/mol
145 | GGGTCCACGTGGAGGA | 0.04 kcal/mol
146 | CGTGGCACGTGGTACT | -0.23 kcal/mol
